Test results taken from publication PMC5679597.
Results are given in words; binding and its absence hold for the method and conditions named. Binding seen in cells or lysates may run through a third protein. Some results given as binding are weak or reduced against the parent protein; the word gives no strength. Tags and fused reporters may be left off the sequences shown.

Chains of the proteins cited; added tags and fusions are not shown. Residues count along the entry.
UniProt Q13136: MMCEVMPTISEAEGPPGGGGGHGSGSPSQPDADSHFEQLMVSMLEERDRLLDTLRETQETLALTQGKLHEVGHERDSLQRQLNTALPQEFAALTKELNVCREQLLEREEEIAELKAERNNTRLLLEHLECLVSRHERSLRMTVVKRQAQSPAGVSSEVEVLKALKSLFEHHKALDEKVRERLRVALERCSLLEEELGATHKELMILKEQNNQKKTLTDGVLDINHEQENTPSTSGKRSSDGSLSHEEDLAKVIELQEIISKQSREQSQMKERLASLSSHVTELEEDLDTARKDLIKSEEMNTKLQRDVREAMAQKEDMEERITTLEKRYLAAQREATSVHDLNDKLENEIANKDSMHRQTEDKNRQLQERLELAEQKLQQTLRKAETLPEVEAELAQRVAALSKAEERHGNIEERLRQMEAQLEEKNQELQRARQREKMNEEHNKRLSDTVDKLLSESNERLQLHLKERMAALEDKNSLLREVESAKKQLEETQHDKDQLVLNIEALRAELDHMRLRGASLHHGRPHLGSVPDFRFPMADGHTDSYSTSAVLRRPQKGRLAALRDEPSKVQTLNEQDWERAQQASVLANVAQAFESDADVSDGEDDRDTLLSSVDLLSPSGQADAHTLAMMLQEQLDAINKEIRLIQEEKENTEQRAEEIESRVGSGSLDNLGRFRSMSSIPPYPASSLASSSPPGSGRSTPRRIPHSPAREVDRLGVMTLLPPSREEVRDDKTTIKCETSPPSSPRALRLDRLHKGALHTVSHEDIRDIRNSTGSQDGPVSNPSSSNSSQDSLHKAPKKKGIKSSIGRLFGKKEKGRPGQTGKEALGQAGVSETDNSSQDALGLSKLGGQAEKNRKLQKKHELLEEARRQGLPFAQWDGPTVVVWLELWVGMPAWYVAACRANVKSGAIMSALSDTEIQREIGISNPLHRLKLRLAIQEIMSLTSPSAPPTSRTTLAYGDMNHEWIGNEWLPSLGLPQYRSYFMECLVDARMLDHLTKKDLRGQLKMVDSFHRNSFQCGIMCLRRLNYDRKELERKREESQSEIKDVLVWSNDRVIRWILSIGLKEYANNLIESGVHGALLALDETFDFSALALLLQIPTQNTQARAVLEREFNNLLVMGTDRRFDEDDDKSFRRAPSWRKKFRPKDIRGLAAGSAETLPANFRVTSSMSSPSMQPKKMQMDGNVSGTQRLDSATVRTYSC
UniProt Q12802: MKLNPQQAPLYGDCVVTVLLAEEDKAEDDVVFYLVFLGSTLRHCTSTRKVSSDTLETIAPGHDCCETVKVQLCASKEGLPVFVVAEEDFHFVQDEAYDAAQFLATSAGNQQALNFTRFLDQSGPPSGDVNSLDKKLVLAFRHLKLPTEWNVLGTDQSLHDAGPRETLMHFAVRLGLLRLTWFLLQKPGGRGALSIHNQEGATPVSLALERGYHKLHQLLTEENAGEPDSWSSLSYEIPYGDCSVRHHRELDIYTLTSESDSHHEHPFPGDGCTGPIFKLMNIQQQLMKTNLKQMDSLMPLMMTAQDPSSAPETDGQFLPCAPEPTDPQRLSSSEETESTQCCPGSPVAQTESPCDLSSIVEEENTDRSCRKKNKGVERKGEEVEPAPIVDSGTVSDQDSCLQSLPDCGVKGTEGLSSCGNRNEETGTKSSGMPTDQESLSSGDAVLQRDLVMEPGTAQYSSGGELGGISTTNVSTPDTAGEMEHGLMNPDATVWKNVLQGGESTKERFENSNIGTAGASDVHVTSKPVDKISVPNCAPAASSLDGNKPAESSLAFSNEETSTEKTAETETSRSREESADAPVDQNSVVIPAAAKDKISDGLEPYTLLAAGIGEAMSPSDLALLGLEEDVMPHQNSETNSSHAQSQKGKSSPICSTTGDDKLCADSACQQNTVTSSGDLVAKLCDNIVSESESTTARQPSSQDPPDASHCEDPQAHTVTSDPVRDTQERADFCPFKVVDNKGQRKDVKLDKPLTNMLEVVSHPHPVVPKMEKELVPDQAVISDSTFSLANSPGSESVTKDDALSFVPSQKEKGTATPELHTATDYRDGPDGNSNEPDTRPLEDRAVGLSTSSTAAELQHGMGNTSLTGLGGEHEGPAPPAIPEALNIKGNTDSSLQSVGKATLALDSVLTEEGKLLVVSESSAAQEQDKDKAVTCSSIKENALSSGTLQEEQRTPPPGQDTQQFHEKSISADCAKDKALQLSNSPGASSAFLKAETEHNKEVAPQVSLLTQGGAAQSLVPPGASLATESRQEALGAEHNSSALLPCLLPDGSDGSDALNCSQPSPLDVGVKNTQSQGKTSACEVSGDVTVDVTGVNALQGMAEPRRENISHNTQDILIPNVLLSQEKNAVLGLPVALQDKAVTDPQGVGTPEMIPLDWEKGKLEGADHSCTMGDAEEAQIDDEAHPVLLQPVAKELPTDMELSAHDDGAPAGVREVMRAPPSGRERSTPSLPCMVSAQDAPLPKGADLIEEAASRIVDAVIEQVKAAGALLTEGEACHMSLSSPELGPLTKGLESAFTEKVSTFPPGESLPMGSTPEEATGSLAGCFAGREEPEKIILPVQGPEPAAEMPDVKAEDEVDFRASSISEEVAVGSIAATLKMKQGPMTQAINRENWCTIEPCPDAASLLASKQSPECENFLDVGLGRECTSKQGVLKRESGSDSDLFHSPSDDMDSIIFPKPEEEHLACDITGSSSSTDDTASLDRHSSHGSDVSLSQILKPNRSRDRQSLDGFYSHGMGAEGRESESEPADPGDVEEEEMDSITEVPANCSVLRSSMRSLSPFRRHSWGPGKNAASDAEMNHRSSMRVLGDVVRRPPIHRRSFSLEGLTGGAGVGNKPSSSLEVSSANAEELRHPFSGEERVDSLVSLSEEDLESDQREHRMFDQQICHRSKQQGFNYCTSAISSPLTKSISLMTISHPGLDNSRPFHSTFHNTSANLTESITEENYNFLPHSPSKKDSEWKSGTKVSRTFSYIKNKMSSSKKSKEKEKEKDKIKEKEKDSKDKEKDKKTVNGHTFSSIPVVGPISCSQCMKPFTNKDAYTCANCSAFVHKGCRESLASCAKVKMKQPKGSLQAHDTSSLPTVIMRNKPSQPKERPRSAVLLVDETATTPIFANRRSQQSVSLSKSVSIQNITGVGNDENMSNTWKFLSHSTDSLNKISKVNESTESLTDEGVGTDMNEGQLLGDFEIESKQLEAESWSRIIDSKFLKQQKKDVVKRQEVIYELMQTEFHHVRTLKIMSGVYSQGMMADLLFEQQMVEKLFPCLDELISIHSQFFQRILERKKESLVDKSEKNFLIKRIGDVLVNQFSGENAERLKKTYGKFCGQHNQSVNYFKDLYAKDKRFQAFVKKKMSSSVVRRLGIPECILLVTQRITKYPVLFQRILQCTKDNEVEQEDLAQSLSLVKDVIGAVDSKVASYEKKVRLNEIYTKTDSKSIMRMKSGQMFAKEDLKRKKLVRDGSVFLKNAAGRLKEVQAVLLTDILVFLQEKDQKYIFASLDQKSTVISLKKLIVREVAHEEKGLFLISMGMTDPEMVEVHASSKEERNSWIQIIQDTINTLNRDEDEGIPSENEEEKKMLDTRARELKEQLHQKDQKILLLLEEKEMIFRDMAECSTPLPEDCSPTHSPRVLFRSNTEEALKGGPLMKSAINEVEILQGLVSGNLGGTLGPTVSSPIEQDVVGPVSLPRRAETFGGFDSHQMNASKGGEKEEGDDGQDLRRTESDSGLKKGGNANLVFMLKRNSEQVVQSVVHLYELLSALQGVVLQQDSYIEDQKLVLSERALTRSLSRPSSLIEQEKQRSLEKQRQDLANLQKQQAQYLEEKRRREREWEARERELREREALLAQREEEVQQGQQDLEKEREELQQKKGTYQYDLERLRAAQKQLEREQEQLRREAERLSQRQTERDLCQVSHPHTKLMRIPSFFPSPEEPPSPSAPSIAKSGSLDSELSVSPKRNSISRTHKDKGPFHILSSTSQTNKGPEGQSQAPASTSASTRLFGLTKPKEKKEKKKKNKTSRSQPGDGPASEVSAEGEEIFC
UniProt Q15375, residues 28-998: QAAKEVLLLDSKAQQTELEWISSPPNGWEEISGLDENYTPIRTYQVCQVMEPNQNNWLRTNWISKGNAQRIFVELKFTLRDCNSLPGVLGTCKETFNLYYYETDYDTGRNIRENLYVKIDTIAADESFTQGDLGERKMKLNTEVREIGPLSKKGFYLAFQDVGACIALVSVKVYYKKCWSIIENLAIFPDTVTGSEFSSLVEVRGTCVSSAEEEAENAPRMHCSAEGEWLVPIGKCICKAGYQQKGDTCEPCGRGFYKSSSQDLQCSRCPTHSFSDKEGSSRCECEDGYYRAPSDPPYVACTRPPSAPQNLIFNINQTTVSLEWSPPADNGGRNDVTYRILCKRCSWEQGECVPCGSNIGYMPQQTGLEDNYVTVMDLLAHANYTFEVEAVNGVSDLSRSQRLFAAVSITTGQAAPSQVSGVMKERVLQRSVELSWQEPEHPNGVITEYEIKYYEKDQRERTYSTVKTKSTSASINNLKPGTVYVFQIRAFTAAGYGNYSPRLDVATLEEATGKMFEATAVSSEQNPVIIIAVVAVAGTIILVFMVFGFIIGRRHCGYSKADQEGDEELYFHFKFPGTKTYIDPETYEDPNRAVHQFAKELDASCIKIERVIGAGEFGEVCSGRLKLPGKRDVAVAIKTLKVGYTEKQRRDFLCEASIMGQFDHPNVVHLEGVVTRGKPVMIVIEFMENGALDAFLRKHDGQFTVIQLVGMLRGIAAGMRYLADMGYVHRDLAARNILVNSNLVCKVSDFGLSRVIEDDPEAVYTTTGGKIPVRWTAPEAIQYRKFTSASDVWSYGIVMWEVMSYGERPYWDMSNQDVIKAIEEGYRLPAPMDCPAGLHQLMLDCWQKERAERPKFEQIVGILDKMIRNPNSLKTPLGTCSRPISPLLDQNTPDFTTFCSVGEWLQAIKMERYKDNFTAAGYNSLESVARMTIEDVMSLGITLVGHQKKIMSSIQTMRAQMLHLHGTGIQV

T1: GFP-tagged LNX1p80 (Ligand of Numb protein X1, p80 isoform) (mouse) (UniProt O70263)
T1 sequence: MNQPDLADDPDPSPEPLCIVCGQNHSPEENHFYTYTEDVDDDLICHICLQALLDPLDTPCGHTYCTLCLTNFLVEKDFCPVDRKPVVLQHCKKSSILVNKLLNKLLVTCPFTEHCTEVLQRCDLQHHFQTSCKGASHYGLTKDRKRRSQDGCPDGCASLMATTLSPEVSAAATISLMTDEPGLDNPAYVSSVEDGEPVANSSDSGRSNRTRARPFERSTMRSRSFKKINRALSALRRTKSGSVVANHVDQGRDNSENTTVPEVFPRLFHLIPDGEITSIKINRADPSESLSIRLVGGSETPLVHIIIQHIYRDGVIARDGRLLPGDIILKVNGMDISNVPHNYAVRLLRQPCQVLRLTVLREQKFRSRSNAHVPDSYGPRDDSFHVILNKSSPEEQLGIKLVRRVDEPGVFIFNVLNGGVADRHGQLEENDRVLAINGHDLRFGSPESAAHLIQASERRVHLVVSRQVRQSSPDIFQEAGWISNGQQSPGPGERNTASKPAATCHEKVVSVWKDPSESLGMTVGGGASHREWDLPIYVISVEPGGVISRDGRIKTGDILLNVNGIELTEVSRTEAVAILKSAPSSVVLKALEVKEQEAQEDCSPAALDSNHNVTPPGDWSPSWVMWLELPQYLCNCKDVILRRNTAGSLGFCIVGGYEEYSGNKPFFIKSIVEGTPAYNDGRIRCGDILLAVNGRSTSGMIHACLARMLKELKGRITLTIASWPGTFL

T2: GFP-LNX1 PDZ1-4 fragment (aa268-728) (mouse) (UniProt O70263)
T2 sequence: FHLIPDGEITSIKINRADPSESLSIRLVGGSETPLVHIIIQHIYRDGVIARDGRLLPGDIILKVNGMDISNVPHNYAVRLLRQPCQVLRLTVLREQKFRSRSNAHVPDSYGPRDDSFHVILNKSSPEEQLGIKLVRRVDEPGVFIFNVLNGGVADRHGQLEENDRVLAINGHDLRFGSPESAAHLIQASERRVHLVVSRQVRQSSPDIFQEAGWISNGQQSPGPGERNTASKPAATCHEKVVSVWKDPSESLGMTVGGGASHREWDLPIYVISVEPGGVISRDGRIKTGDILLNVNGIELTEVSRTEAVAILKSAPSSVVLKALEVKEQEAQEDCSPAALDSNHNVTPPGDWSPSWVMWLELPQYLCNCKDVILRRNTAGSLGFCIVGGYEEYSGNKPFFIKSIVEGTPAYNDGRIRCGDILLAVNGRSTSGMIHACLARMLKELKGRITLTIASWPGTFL

T3: GFP-tagged LNX2 (mouse) (UniProt Q91XL2)
T3 sequence: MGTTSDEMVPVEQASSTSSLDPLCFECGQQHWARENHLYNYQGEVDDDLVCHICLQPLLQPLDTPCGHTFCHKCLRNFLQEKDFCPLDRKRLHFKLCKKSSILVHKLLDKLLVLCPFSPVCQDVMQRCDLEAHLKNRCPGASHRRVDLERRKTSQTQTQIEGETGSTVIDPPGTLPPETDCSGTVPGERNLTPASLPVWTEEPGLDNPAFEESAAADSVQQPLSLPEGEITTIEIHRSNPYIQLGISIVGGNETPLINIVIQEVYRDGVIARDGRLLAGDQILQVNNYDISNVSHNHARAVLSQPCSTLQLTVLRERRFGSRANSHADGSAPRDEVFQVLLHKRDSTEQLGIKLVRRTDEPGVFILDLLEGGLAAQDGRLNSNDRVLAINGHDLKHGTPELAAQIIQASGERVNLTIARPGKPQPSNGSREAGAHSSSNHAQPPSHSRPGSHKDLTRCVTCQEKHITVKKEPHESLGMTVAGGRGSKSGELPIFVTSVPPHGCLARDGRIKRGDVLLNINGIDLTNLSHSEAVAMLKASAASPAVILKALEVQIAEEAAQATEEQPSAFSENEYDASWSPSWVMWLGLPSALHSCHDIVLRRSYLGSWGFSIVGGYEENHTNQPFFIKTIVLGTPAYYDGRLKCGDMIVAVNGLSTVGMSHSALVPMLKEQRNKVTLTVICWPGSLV

T4: GFP-LNX1 PDZ2 (aa377-470) (mouse) (UniProt O70263)
T4 sequence: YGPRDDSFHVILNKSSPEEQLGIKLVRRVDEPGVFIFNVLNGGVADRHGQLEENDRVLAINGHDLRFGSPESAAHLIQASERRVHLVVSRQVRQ

B1: MID2, transfected, HA or GST epitope-tagged (Fig 1B) (protein, UniProt Q9UJV3-2 1-705)
chain: MGESPASVVLNASGGLFSLKMETLESELTCPICLELFEDPLLLPCAHSLCFSCAHRILVSSCSSGESIEPITAFQCPTCRYVISLNHRGLDGLKRNVTLQNIIDRFQKASVSGPNSPSESRRERTYRPTTAMSSERIACQFCEQDPPRDAVKTCITCEVSYCDRCLRATHPNKKPFTSHRLVEPVPDTHLRGITCLDHENEKVNMYCVSDDQLICALCKLVGRHRDHQVASLNDRFEKLKQTLEMNLTNLVKRNSELENQMAKLIQICQQVEVNTAMHEAKLMEECDELVEIIQQRKQMIAVKIKETKVMKLRKLAQQVANCRQCLERSTVLINQAEHILKENDQARFLQSAKNIAERVAMATASSQVLIPDINFNDAFENFALDFSREKKLLEGLDYLTAPNPPSIREELCTASHDTITVHWISDDEFSISSYELQYTIFTGQANFISLYNSVDSWMIVPNIKQNHYTVHGLQSGTRYIFIVKAINQAGSRNSEPTRLKTNSQPFKLDPKMTHKKLKISNDGLQMEKDESSLKKSHTPERFSGTGCYGAAGNIFIDSGCHYWEVVMGSSTWYAIGIAYKSAPKNEWIGKNASSWVFSRCNSNFVVRHNNKEMLVDVPPHLKRLGVLLDYDNNMLSFYDPANSLHLHTFDVTFILPVCPTFTIWNKSLMILSGLPAPDFIDYPERQECNCRPQESPYVSGMKTCH
B2: FLAG-MID2 FN3 domain-SPRY domain (aa 395-705) (domain or fragment, UniProt Q9UJV3-2 395-705)
chain: GLDYLTAPNPPSIREELCTASHDTITVHWISDDEFSISSYELQYTIFTGQANFISLYNSVDSWMIVPNIKQNHYTVHGLQSGTRYIFIVKAINQAGSRNSEPTRLKTNSQPFKLDPKMTHKKLKISNDGLQMEKDESSLKKSHTPERFSGTGCYGAAGNIFIDSGCHYWEVVMGSSTWYAIGIAYKSAPKNEWIGKNASSWVFSRCNSNFVVRHNNKEMLVDVPPHLKRLGVLLDYDNNMLSFYDPANSLHLHTFDVTFILPVCPTFTIWNKSLMILSGLPAPDFIDYPERQECNCRPQESPYVSGMKTCH
B3: FLAG-MID2 full length (aa 1-705) (protein, UniProt Q9UJV3-2 1-705)
chain: B1 chain
B4: TRIM27, transfected, epitope-tagged (aa 1-513) (protein, UniProt P14373-1 1-513)
chain: MASGSVAECLQQETTCPVCLQYFAEPMMLDCGHNICCACLARCWGTAETNVSCPQCRETFPQRHMRPNRHLANVTQLVKQLRTERPSGPGGEMGVCEKHREPLKLYCEEDQMPICVVCDRSREHRGHSVLPLEEAVEGFKEQIQNQLDHLKRVKDLKKRRRAQGEQARAELLSLTQMEREKIVWEFEQLYHSLKEHEYRLLARLEELDLAIYNSINGAITQFSCNISHLSSLIAQLEEKQQQPTRELLQDIGDTLSRAERIRIPEPWITPPDLQEKIHIFAQKCLFLTESLKQFTEKMQSDMEKIQELREAQLYSVDVTLDPDTAYPSLILSDNLRQVRYSYLQQDLPDNPERFNLFPCVLGSPCFIAGRHYWEVEVGDKAKWTIGVCEDSVCRKGGVTSAPQNGFWAVSLWYGKEYWALTSPMTALPLRTPLQRVGIFLDYDAGEVSFYNVTERCHTFTFSHATFCGPVRPYFSLSYSGGKSAAPLIICPMSGIDGFSGHVGNHGHSMETSP
B5: FLAG-MID2 RING domain - BBOX type Zinc finger-2 (aa 1-235) (domain or fragment, UniProt Q9UJV3-2 1-235)
chain: MGESPASVVLNASGGLFSLKMETLESELTCPICLELFEDPLLLPCAHSLCFSCAHRILVSSCSSGESIEPITAFQCPTCRYVISLNHRGLDGLKRNVTLQNIIDRFQKASVSGPNSPSESRRERTYRPTTAMSSERIACQFCEQDPPRDAVKTCITCEVSYCDRCLRATHPNKKPFTSHRLVEPVPDTHLRGITCLDHENEKVNMYCVSDDQLICALCKLVGRHRDHQVASLNDR
B6: FLAG-MID2 Coiled coil-COS domain (aa 222-406) (domain or fragment, UniProt Q9UJV3-2 222-406)
chain: GRHRDHQVASLNDRFEKLKQTLEMNLTNLVKRNSELENQMAKLIQICQQVEVNTAMHEAKLMEECDELVEIIQQRKQMIAVKIKETKVMKLRKLAQQVANCRQCLERSTVLINQAEHILKENDQARFLQSAKNIAERVAMATASSQVLIPDINFNDAFENFALDFSREKKLLEGLDYLTAPNPPS

Columns and labels:
Experiment in all cases: pull-down; GFP pull-down: GFP-tagged LNX constructs transfected into HEK 293 cells (HEK 293T in Fig 3A) alone or with the partner, captured on GFP-Trap_M beads, western blot; NaCl in the wash up to 500 mM in some cases
[1] = target: T1, GFP-tagged LNX1p80 (Ligand of Numb protein X1, p80 isoform) (mouse)
[2] = target: T2, GFP-LNX1 PDZ1-4 fragment (aa268-728) (mouse)
[3] = target: T3, GFP-tagged LNX2 (mouse)
[4] = target: T4, GFP-LNX1 PDZ2 (aa377-470) (mouse)

Row | Molecule | binding [1] | binding [2] | binding [3] | binding [4]
1 | Liprin-alpha-1 (PPFIA1), endogenous (from UniProt Q13136 1-1202) | binds | binds | no binding | binds
2 | AKAP13, transfected, HA or GST epitope-tagged (Fig 1B) (from UniProt Q12802 1-2813) | binds | binds | no binding | binds
3 | EphA7, transfected, HA or GST epitope-tagged (Fig 1B) (from UniProt Q15375 28-998) (receptor) | binds |  | binds | 
4 | B1 | binds | binds | no binding | 
5 | B2 | binds |  |  | 
6 | B3 | binds |  |  | 
7 | B4 | binds |  |  | 
8 | B5 | no binding |  |  | 
9 | B6 | no binding |  |  | 
